{"source": "PubChem BioAssay AID504332", "about": "(National Center for Advancing Translational Sciences (NCATS), 2011)", "note": "The campaign covered roughly 350,000 compounds. About 31,000 (8.9%) were called active. Inconclusive results, whose numbers are uncertain, are shown with a selection of clear calls. Calls come from the whole dose curve; as a rule, active = well fitted inhibition curve with a large enough effect; inconclusive = small, poorly fitted or top-dose-only effect; inactive = no such curve, though single readings can be large or run the other way. A potency beside an inconclusive call is a rough fit, not a confirmed value. % is set by controls: 0 for no effect and ±100 for the full control effect; potency is the fitted concentration of half-maximal effect; tags give direction and shape of the fitted curve."}
{"molecular_target": "Histone-lysine N-methyltransferase EHMT2 (Homo sapiens) (UniProt Q96KQ7)", "sequence (Q96KQ7 whole entry, looked up)": "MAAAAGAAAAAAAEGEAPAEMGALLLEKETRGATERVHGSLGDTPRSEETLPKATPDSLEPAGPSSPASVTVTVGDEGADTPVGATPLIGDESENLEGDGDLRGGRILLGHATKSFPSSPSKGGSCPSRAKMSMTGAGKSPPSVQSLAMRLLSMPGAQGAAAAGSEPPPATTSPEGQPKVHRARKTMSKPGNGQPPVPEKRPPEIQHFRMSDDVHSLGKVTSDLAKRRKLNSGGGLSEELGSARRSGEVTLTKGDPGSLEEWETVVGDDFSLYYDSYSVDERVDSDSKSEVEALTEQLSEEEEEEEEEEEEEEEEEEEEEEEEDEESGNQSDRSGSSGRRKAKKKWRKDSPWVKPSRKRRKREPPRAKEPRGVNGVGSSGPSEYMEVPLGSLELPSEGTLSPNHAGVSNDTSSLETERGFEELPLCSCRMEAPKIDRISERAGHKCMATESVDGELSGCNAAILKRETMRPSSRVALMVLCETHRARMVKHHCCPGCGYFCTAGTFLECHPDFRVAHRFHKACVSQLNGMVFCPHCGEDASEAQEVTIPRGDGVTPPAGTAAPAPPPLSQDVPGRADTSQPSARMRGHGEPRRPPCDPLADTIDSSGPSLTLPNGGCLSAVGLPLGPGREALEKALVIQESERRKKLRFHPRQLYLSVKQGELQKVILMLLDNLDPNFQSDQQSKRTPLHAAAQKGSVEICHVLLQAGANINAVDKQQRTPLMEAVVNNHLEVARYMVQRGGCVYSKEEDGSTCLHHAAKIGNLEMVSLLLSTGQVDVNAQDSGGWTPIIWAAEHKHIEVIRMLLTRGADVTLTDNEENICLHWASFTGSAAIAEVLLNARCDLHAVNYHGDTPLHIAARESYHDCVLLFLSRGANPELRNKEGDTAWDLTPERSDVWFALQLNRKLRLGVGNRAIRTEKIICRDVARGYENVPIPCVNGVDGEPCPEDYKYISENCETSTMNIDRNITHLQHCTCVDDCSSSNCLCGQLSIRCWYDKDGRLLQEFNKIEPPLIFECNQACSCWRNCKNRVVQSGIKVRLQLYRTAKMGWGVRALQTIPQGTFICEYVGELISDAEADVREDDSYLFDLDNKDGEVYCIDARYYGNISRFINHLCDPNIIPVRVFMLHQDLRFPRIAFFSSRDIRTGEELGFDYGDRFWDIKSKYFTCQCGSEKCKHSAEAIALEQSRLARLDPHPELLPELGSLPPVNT", "test": "qHTS Assay for Inhibitors of Histone Lysine Methyltransferase G9a; note: nearly all actives have a fitted effect of over 75% in size", "details": "G9a H3K9 monomethylation, AlphaScreen, 2 h; activity, negative = inhibition: at 59 µM (top of the series) unless noted", "procedure,_shortened": "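Compounds were preincubated with 20 nM G9a for 15 min, after which biotinylated H3K9 peptide (500 nM) and SAM (20 uM) started a 2 h room-temperature reaction. Monomethylated product was quantified by antibody-based AlphaScreen chemiluminescence.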"}
{"smiles": "COC(=O)c1c(SCC(=O)Nc2ccccc2OC)[nH]c2ccccc2c1=O", "activity, negative = inhibition": "inactive: -23.7%"}
{"smiles": "CC1CCCN(c2nc(N(C)c3ccccc3)nc(N)c2[N+](=O)[O-])C1", "note": "(configuration not stated)", "Potency": "active: 31.6 µM"}
{"smiles": "O=S(=O)(c1ccc(Cl)cc1)N1CCN(CCc2ccccc2)CC1", "Potency": "inconclusive: 79.4 µM [inhibitor, single point]"}
{"smiles": "CCOC(=O)c1ccc(NC(=O)c2cc3c(n(-c4ccc(C)cc4)c2=O)CC(C)(C)CC3=O)cc1", "Potency": "inconclusive: 0.1 µM [inhibitor, full curve, poor fit]"}
{"smiles": "CC(=O)C[C@H](O)CC(=O)[C@H]1OC(=O)CCCCCCCc2ccccc21", "activity, negative = inhibition": "inactive: 4.7% [at 2.33 µM]"}
{"smiles": "Cc1ccc(N=Nc2c(O)n(CN3CCOCC3)c3ccccc23)cc1", "activity, negative = inhibition": "inactive: -4.58% [at 102 µM]"}
{"smiles": "COc1ccc(/C=C2/SC(=O)N(CCNC(=O)C3CCCN3C(=O)c3cccs3)C2=O)cc1", "note": "(configuration not stated)", "Potency": "inconclusive: 25.1 µM [inhibitor, single point]"}
{"smiles": "COC(=O)c1cc(OC)c(OC)cc1NC(=S)Nc1cccc(C(C)=O)c1", "Potency": "active: 10 µM"}
{"smiles": "CCOC(=O)c1ccc(N2C(=O)C3ON(c4ccccc4)C(c4ccco4)C3C2=O)cc1", "note": "(configuration not stated)", "Potency": "inconclusive: 89.1 µM [inhibitor, single point]"}
{"smiles": "CC1=C(c2ccc(Cl)cc2)S(=O)(=O)NC1=NCc1ccc(C)cc1", "Potency": "inconclusive: 22.4 µM [inhibitor, partial curve, poor fit]"}
{"smiles": "Cc1ccc(C(=O)Nc2ccccc2C(=O)N2CC3(C)CC2CC(C)(C)C3)cc1", "note": "(configuration not stated)", "Potency": "inconclusive: 89.1 µM [inhibitor, single point]"}
{"smiles": "CCOC(=S)SCC(=O)Nc1nccs1", "activity, negative = inhibition": "inconclusive: -78.3% [inhibitor]"}
{"smiles": "CC(C)n1c(SCC(=O)N2c3ccccc3Sc3ccccc32)nc2c1c(=O)n(C)c(=O)n2C", "activity, negative = inhibition": "inactive: 13.9% [at 102 µM]"}
{"smiles": "COc1ccc(C(=S)NC2CCCCC2)cc1", "Potency": "active: 10 µM"}
{"smiles": "C/C(=N\\NC(=O)C1CCCC1)c1ccc(C(C)C)cc1", "activity, negative = inhibition": "inactive: 0.126% [at 102 µM]"}
{"smiles": "O=C(CCc1ccc(Oc2cc([N+](=O)[O-])cc([N+](=O)[O-])c2)cc1)N1CCCCCC1", "Potency": "inconclusive: 31.6 µM [inhibitor, single point]"}
{"smiles": "Cc1ccc(C(=O)c2sc3nsc(C)c3c2N)cc1", "Potency": "inconclusive: 39.8 µM [inhibitor, single point]"}
{"smiles": "Cc1ccc(NC(=O)CSc2nnc(C)c(=O)[nH]2)cc1", "activity, negative = inhibition": "inactive: 3.91%"}
{"smiles": "CCOC(=O)CSC1=NN2CCS(=O)(=O)N=C2S1", "Potency": "inconclusive: 89.1 µM [inhibitor, partial curve, poor fit]"}
{"smiles": "COc1ccc(CN2CCN(Cc3c[nH]c4ccccc34)CC2)cc1", "Potency": "inconclusive: 39.8 µM [inhibitor, partial curve, poor fit]"}
{"smiles": "CCNc1ccc(S(=O)(=O)NCCN(C)C)cc1[N+](=O)[O-]", "activity, negative = inhibition": "inactive: -4.44% [at 102 µM]"}
{"smiles": "COc1ccccc1NC(=S)NC(=O)C(C)C", "Potency": "inconclusive: 2.51 µM [inhibitor, full curve, poor fit]"}
{"smiles": "CC(C)C12CN3CC(C(C)C)(CN(C1)C3c1ccc3c(c1)OCO3)C2=O", "note": "(configuration not stated)", "Potency": "inconclusive: 0.794 µM [inhibitor, partial curve, poor fit]"}
{"smiles": "Cc1ccc(C2NC(=O)c3c(sc(C)c3C)N2)c(O)c1", "note": "(configuration not stated)", "Potency": "active: 31.6 µM"}
{"smiles": "CCOc1ccc(NC2=CC(=O)CC(c3ccco3)C2)cc1", "note": "(configuration not stated)", "Potency": "inconclusive: 44.7 µM [inhibitor, partial curve, poor fit]"}
{"smiles": "COc1cc(C(C)=O)ccc1OCC(=O)NCC1(N2CCCCC2)CCCCC1", "activity, negative = inhibition": "inactive: -0.986%"}
{"smiles": "Cc1nnc2c3ccccc3nc(N3CCN(c4cccc(Cl)c4)CC3)n12", "Potency": "inconclusive: 7.08 µM [inhibitor, partial curve]"}
{"smiles": "C#CCOCCOCCOCCNc1nc(N2CCN(C(=O)CCCCCCCCCCNC(=O)Cn3cc(CCCCCN)nn3)CC2)nc(N2CCN(C(=O)CCCCCCCCCCNC(=O)[C@@H]([C@H](C)O)n3cc(C)nn3)CC2)n1", "activity, negative = inhibition": "inactive: 22.8% [at 2.33 µM]"}
{"smiles": "CCOCCCn1c(=N)c(C(=O)NC2CCCC2)cc2c(=O)n3cccc(C)c3nc21", "activity, negative = inhibition": "inactive: 5.99%"}
{"smiles": "CCc1[nH]c(=S)c(C#N)c(-c2ccccc2)c1C(=O)OC", "Potency": "active: 15.8 µM"}
{"smiles": "Cc1ccc(C(C)NC(=O)CSc2ccc(S(=O)(=O)N3CCOCC3)cn2)cc1C", "note": "(configuration not stated)", "Potency": "inconclusive: 8.91 µM [inhibitor, single point]"}
{"smiles": "CC1CCCC(NC(=O)CNCc2ccccc2F)C1C", "note": "(configuration not stated)", "Potency": "active: 10 µM"}
{"smiles": "O=C1[C@@H]2Cc3c([nH]c4ccccc34)C(c3cccc([N+](=O)[O-])c3)N2C(=O)CN1C1CCN(Cc2ccccc2)CC1", "note": "(some centres not stated)", "activity, negative = inhibition": "inactive: 32.2% [at 0.501 µM]"}
{"smiles": "CC(=O)Oc1ccc(C(=O)Nc2cccc(C(=O)c3ccc(C)c(C)c3)c2)cc1", "Potency": "inconclusive: 44.7 µM [inhibitor, partial curve, poor fit]"}
{"smiles": "O=C(CNC(=O)c1ccc2ccccc2c1)NCc1ccccc1F", "Potency": "inconclusive: 14.1 µM [inhibitor, partial curve, poor fit]"}
{"smiles": "Cc1cc(=O)oc(C)c1C(=O)NCCNC(=O)c1c(C)cc(=O)oc1C", "activity, negative = inhibition": "inactive: -6.59% [at 12.7 µM]"}
{"smiles": "Clc1ccc(-n2nnc(-c3cccnc3Cl)n2)cn1", "activity, negative = inhibition": "inconclusive: -55.9% [inhibitor]"}
{"smiles": "CC(C)CN(C(=O)CCC(=O)OCC(=O)NCCc1ccccc1)c1c(N)n(CC(C)C)c(=O)[nH]c1=O", "activity, negative = inhibition": "inactive: 26.9% [at 102 µM]"}
{"smiles": "COc1ccc(Nc2nc(-c3cccnc3)nc3ccccc23)cn1", "Potency": "active: 35.5 µM"}
{"smiles": "COC(=O)CNC(=O)C1CC(=O)N(CCc2ccc(F)cc2)C1", "note": "(configuration not stated)", "activity, negative = inhibition": "inactive: 3.05% [at 102 µM]"}
{"smiles": "Cc1cc(OC(C)C(=O)NC2CC(C)(C)NC(C)(C)C2)c2c(C)cc(=O)oc2c1", "note": "(configuration not stated)", "activity, negative = inhibition": "inactive: 15.6% [at 102 µM]"}
{"smiles": "CCCCOc1ccc(C2c3c(oc4ccccc4c3=O)C(=O)N2c2nc(C)c(C(=O)OCC)s2)cc1OC", "note": "(configuration not stated)", "activity, negative = inhibition": "inactive: -4.35%"}
{"smiles": "CCc1ccc(NC(=O)c2ccc3c(c2)c(C)c(C)n3Cc2ccccc2)cc1", "activity, negative = inhibition": "inactive: -7.83%"}
{"smiles": "COc1ccc(Cl)cc1C(=O)Nc1ccncc1", "Potency": "inconclusive: 89.1 µM [inhibitor, single point]"}
{"smiles": "CCc1ccc(NC(=O)c2oc3c(c2C)-c2[nH]ncc2CC3)cc1", "Potency": "inconclusive: 39.8 µM [inhibitor, partial curve, poor fit]"}
{"smiles": "O=C(Nc1nnc(SCC(=O)N2CCOCC2)s1)c1ccccc1Cl", "activity, negative = inhibition": "inactive: -24.2%"}
{"smiles": "Nc1nc(N)c(Cc2ccc(Cl)cc2Cl)c(N)n1", "Potency": "inconclusive: 28.2 µM [inhibitor, full curve]"}
{"smiles": "COc1ccccc1N=c1scc(-c2ccc3c(c2)NC(=O)CO3)n1CC1CCCO1", "note": "(configuration not stated)", "activity, negative = inhibition": "inconclusive: -93% [inhibitor]"}
{"smiles": "O=C(Nc1ccccc1Br)N1CCN2CCCCC2C1", "note": "(configuration not stated)", "activity, negative = inhibition": "inactive: -23.3%"}
{"smiles": "CC(C)C(=O)Nc1ccc(NC(=O)CCc2ccccc2)cn1", "Potency": "inconclusive: 56.2 µM [inhibitor, partial curve, poor fit]"}
{"smiles": "c1ccc(-c2ccccc2OCCCN2CCCCC2)cc1", "Potency": "active: 8.91 µM"}
{"smiles": "CCc1n[nH]c(=S)n1/N=C/c1cc(Br)c(OC)cc1OC", "Potency": "active: 2.51 µM"}
{"smiles": "CC(C)n1nc(C(=O)OCC(=O)c2c[nH]c3ccccc23)c2ccccc2c1=O", "Potency": "inconclusive: 89.1 µM [inhibitor, single point]"}
{"smiles": "COc1ccc(OC)c(NC(=O)N2CCCC(C(=O)c3ccccc3OC)C2)c1", "note": "(configuration not stated)", "Potency": "inconclusive: 11.2 µM [inhibitor, partial curve]"}
{"smiles": "Cc1ccc(CCNC(=O)CN2CCN(Cc3ccc(Cl)cc3)C2=O)cc1", "activity, negative = inhibition": "inactive: 17.4%"}
{"smiles": "COC(=O)Cn1c(CCS(=O)(=O)c2ccc(C)c(C)c2)nc2ccccc21", "Potency": "inconclusive: 56.2 µM [inhibitor, partial curve, poor fit]"}
{"smiles": "O=S(=O)(Nc1ccc(Br)cc1)c1ccc2nc(-c3ccccc3)[nH]c2c1", "activity, negative = inhibition": "inactive: -8.45%"}
{"smiles": "COc1ccc(S(=O)(=O)NCCc2cn3ccsc3n2)cc1", "activity, negative = inhibition": "inactive: 26.1%"}
{"smiles": "O=C(C1=C(O)C(=O)N(c2nc3ccc(Cl)cc3s2)C1c1ccco1)c1ccco1", "note": "(configuration not stated)", "Potency": "inconclusive: 3.98 µM [inhibitor, single point]"}
{"smiles": "Cc1ccc(N(C(=O)c2cccc(C)c2)S(=O)(=O)c2ccc(Cl)cc2)cc1", "activity, negative = inhibition": "inactive: 14.2%"}
{"smiles": "Cc1ccc(-n2cc(-c3ccccc3)c3c(N4CCOCC4)ncnc32)cc1", "Potency": "inconclusive: 44.7 µM [inhibitor, partial curve, poor fit]"}
{"smiles": "Nc1nc(COC(=O)C2CC(=O)N(Cc3ccccc3)C2)nc(Nc2ccccc2)n1", "note": "(configuration not stated)", "activity, negative = inhibition": "inactive: 3.82% [at 12.7 µM]"}
{"smiles": "CCc1ccc(NC(=O)CN2C(=O)CCSc3ccc(S(=O)(=O)N4CCCC4)cc32)cc1", "activity, negative = inhibition": "inactive: 4.57%"}
{"smiles": "COc1ccc(NC(=O)/C(Cl)=C(/Cl)S(=O)Cc2ccccc2)cn1", "note": "(configuration not stated)", "Potency": "active: 11.2 µM"}
{"smiles": "Cc1c(Cl)cnc(NC(=O)COC(=O)c2cccc(S(=O)(=O)N3c4ccccc4CC3C)c2)c1Cl", "note": "(configuration not stated)", "Potency": "inconclusive: 2 µM [inhibitor, partial curve, poor fit]"}
{"smiles": "COc1cc(C(=S)N2CCCC2)ccc1OC(=O)c1ccc(Cl)cc1[N+](=O)[O-]", "Potency": "inconclusive: 79.4 µM [inhibitor, partial curve, poor fit]"}
{"smiles": "Cc1ccc(N2C(=O)C3C4C=CC(CNC(=S)Nc5ccc(F)cc5)(O4)C3C2=O)cc1", "note": "(configuration not stated)", "Potency": "active: 7.94 µM"}
{"smiles": "CC(C)Nc1nnc(SCC(=O)c2c[nH]c3ccccc23)s1", "Potency": "inconclusive: 28.2 µM [inhibitor, single point]"}
{"smiles": "Cc1ccc(NC(=O)CCNS(=O)(=O)c2ccc3c(c2)CCC(=O)N3)cc1F", "activity, negative = inhibition": "inactive: 29.7% [at 102 µM]"}
{"smiles": "Cc1ccc(-c2cc(C(=O)O)c3cc(Br)ccc3n2)o1", "Potency": "active: 1.26 µM"}
{"smiles": "CCOC(=O)c1ccc(NC(=O)C2CCN(S(=O)(=O)Cc3ccccc3)CC2)cc1", "activity, negative = inhibition": "inactive: 44.4%"}
{"smiles": "Cc1cc(Cl)ccc1NC(=O)CS(=O)(=O)c1cccc2nsnc12", "activity, negative = inhibition": "inactive: 7.83%"}
